# Results reported in the supplement of paper PMC8728848.
# Some of the results follow.
# Tests used:
# Experiment in all cases: glycan array binding signal (z-score within array); higher = stronger binding
# Conditions in all cases: glycan notation: IUPAC condensed, linker removed
# [1] = biological target: Gal(b1-4)GlcNAc(b1-3)Gal(b1-4)GlcNAc(b1-2)[Gal(b1-4)GlcNAc(b1-3)Gal(b1-4)GlcNAc(b1-6)]Man(a1-6)[Gal(b1-4)GlcNAc(b1-3)Gal(b1-4)GlcNAc(b1-2)Man(a1-3)]Man(b1-4)GlcNAc(b1-4)GlcNAc
# Procedure, shortened: (§1)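 Glycan array binding is given as a within-array Z-score, which can be read as non-binding when negative. The arrays, 3228 of them, came from the Consortium for Functional Glycomics database and were retained only where the protein sequence was available. Z-scores were averaged across arrays of the same protein sequence at different concentrations or buffers and across linkers.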
# [2] = biological target: Gal(b1-4)GlcNAc(b1-3)Gal(b1-4)GlcNAc(b1-2)[Gal(b1-4)GlcNAc(b1-3)Gal(b1-4)GlcNAc(b1-6)]Man(a1-6)[Gal(b1-4)GlcNAc(b1-3)Gal(b1-4)GlcNAc(b1-2)Man(a1-3)]Man(b1-4)GlcNAc(b1-4)[Fuc(a1-6)]GlcNAc
# Procedure, shortened: as §1
# [3] = biological target: Gal(b1-4)GlcNAc(b1-3)Gal(b1-4)GlcNAc(b1-3)Gal(b1-4)GlcNAc
# Procedure, shortened: as §1
# [4] = biological target: Gal(b1-4)GlcNAc(b1-3)Gal(b1-4)GlcNAc(b1-3)Gal(b1-4)GlcNAc(b1-2)Man(a1-3)[Gal(b1-4)GlcNAc(b1-3)Gal(b1-4)GlcNAc(b1-3)Gal(b1-4)GlcNAc(b1-2)Man(a1-6)]Man(b1-4)GlcNAc(b1-4)GlcNAc
# Procedure, shortened: as §1
# [5] = biological target: Gal(b1-4)GlcNAc(b1-3)Gal(b1-4)GlcNAc(b1-3)Gal(b1-4)GlcNAc(b1-2)Man(a1-3)[Gal(b1-4)GlcNAc(b1-3)Gal(b1-4)GlcNAc(b1-3)Gal(b1-4)GlcNAc(b1-2)Man(a1-6)]Man(b1-4)GlcNAc(b1-4)[Fuc(a1-6)]GlcNAc
# Procedure, shortened: as §1
# [6] = biological target: Gal(b1-4)GlcNAc(b1-3)Gal(b1-4)GlcNAc(b1-3)Gal(b1-4)GlcNAc(b1-2)[Gal(b1-4)GlcNAc(b1-3)Gal(b1-4)GlcNAc(b1-3)Gal(b1-4)GlcNAc(b1-6)]Man(a1-6)[Gal(b1-4)GlcNAc(b1-3)Gal(b1-4)GlcNAc(b1-3)Gal(b1-4)GlcNAc(b1-2)Man(a1-3)]Man(b1-4)GlcNAc(b1-4)[Fuc(a1-6)]GlcNAc
# Procedure, shortened: as §1
# [7] = biological target: Gal(b1-4)GlcNAc(b1-3)Gal(b1-4)GlcNAc(b1-3)Gal(b1-4)GlcNAc(b1-3)Gal(b1-4)GlcNAc(b1-2)Man(a1-3)[Gal(b1-4)GlcNAc(b1-3)Gal(b1-4)GlcNAc(b1-3)Gal(b1-4)GlcNAc(b1-3)Gal(b1-4)GlcNAc(b1-2)Man(a1-6)]Man(b1-4)GlcNAc(b1-4)GlcNAc
# Procedure, shortened: as §1
# [8] = biological target: Gal(b1-4)GlcNAc(b1-3)Gal(b1-4)GlcNAc(b1-3)Gal(b1-4)GlcNAc(b1-3)Gal(b1-4)GlcNAc(b1-2)Man(a1-3)[Gal(b1-4)GlcNAc(b1-3)Gal(b1-4)GlcNAc(b1-3)Gal(b1-4)GlcNAc(b1-3)Gal(b1-4)GlcNAc(b1-2)Man(a1-6)]Man(b1-4)GlcNAc(b1-4)[Fuc(a1-6)]GlcNAc
# Procedure, shortened: as §1
# [9] = biological target: Gal(b1-4)GlcNAc(b1-3)Gal(b1-4)GlcNAc(b1-3)Gal(b1-4)GlcNAc(b1-3)Gal(b1-4)GlcNAc(b1-2)[Gal(b1-4)GlcNAc(b1-3)Gal(b1-4)GlcNAc(b1-3)Gal(b1-4)GlcNAc(b1-3)Gal(b1-4)GlcNAc(b1-6)]Man(a1-6)[Gal(b1-4)GlcNAc(b1-3)Gal(b1-4)GlcNAc(b1-3)Gal(b1-4)GlcNAc(b1-3)Gal(b1-4)GlcNAc(b1-2)Man(a1-3)]Man(b1-4)GlcNAc(b1-4)[Fuc(a1-6)]GlcNAc
# Procedure, shortened: as §1
# [10] = biological target: Gal(b1-4)GlcNAc(b1-3)Gal(b1-4)GlcNAc(b1-3)Gal(b1-4)GlcNAc(b1-3)Gal(b1-4)GlcNAc(b1-3)Gal(b1-4)GlcNAc(b1-2)Man(a1-3)[Gal(b1-4)GlcNAc(b1-3)Gal(b1-4)GlcNAc(b1-3)Gal(b1-4)GlcNAc(b1-3)Gal(b1-4)GlcNAc(b1-3)Gal(b1-4)GlcNAc(b1-2)Man(a1-6)]Man(b1-4)GlcNAc(b1-4)GlcNAc
# Procedure, shortened: as §1
# [11] = biological target: Gal(b1-4)GlcNAc(b1-3)Gal(b1-4)GlcNAc(b1-3)Gal(b1-4)GlcNAc(b1-3)Gal(b1-4)GlcNAc(b1-3)Gal(b1-4)GlcNAc(b1-2)Man(a1-3)[Gal(b1-4)GlcNAc(b1-3)Gal(b1-4)GlcNAc(b1-3)Gal(b1-4)GlcNAc(b1-3)Gal(b1-4)GlcNAc(b1-3)Gal(b1-4)GlcNAc(b1-2)Man(a1-6)]Man(b1-4)GlcNAc(b1-4)[Fuc(a1-6)]GlcNAc
# Procedure, shortened: as §1
# [12] = biological target: Gal(b1-4)GlcNAc(b1-3)Gal(b1-4)GlcNAc(b1-3)Gal(b1-4)GlcNAc(b1-3)Gal(b1-4)GlcNAc(b1-3)Gal(b1-4)GlcNAc(b1-2)[Gal(b1-4)GlcNAc(b1-3)Gal(b1-4)GlcNAc(b1-3)Gal(b1-4)GlcNAc(b1-3)Gal(b1-4)GlcNAc(b1-3)Gal(b1-4)GlcNAc(b1-6)]Man(a1-6)[Gal(b1-4)GlcNAc(b1-3)Gal(b1-4)GlcNAc(b1-3)Gal(b1-4)GlcNAc(b1-3)Gal(b1-4)GlcNAc(b1-3)Gal(b1-4)GlcNAc(b1-2)Man(a1-3)]Man(b1-4)GlcNAc(b1-4)[Fuc(a1-6)]GlcNAc
# Procedure, shortened: as §1
# [13] = biological target: Gal(b1-4)GlcNAc(b1-3)Gal(b1-4)GlcNAc(b1-3)Gal(b1-4)GlcNAc(b1-3)Gal(b1-4)GlcNAc(b1-3)Gal(b1-4)GlcNAc(b1-3)Gal(b1-4)GlcNAc(b1-2)Man(a1-3)[Gal(b1-4)GlcNAc(b1-3)Gal(b1-4)GlcNAc(b1-3)Gal(b1-4)GlcNAc(b1-3)Gal(b1-4)GlcNAc(b1-3)Gal(b1-4)GlcNAc(b1-3)Gal(b1-4)GlcNAc(b1-2)Man(a1-6)]Man(b1-4)GlcNAc(b1-4)GlcNAc
# Procedure, shortened: as §1
# [14] = biological target: Gal(b1-4)GlcNAc(b1-3)Gal(b1-4)GlcNAc(b1-3)GalNAc
# Procedure, shortened: as §1
# [15] = biological target: Gal(b1-4)GlcNAc(b1-3)Gal(b1-4)GlcNAc(b1-3)[Gal(b1-4)GlcNAc(b1-3)Gal(b1-4)GlcNAc(b1-6)]GalNAc
# Procedure, shortened: as §1
# [16] = biological target: Gal(b1-4)GlcNAc(b1-3)Gal(b1-4)GlcNAc(b1-6)[Gal(b1-3)]GalNAc
# Procedure, shortened: as §1
# [17] = biological target: Gal(b1-4)GlcNAc(b1-3)Gal(b1-4)[Fuc(a1-3)]GlcNAc(b1-3)Gal(b1-4)[Fuc(a1-3)]GlcNAc
# Procedure, shortened: as §1
# [18] = biological target: Gal(b1-4)GlcNAc(b1-3)GalNAc
# Procedure, shortened: as §1
# [19] = biological target: Gal(b1-4)GlcNAc(b1-3)[Fuc(a1-3)GlcNAc(b1-6)]Gal(b1-4)Glc
# Procedure, shortened: as §1
# [20] = biological target: Gal(b1-4)GlcNAc(b1-3)[Gal(b1-4)GlcNAc(b1-6)]Gal(b1-4)GlcNAc
# Procedure, shortened: as §1
# [21] = biological target: Gal(b1-4)GlcNAc(b1-3)[GlcNAc(b1-6)]Gal(b1-4)GlcNAc
# Procedure, shortened: as §1
# [22] = biological target: Gal(b1-4)GlcNAc(b1-6)Gal(b1-4)GlcNAc
# Procedure, shortened: as §1
# [23] = biological target: Gal(b1-4)GlcNAc(b1-6)GalNAc
# Procedure, shortened: as §1
# [24] = biological target: Gal(b1-4)GlcNAc(b1-6)[Gal(b1-3)]GalNAc
# Procedure, shortened: as §1
# [25] = biological target: Gal(b1-4)GlcNAc(b1-6)[Gal(b1-4)GlcNAc(b1-3)]GalNAc
# Procedure, shortened: as §1
# Gal(b1-4)GlcNAc6P = biological target: Gal(b1-4)GlcNAc6P
# Procedure, shortened: as §1
# Gal(b1-6)Gal = biological target: Gal(b1-6)Gal
# Procedure, shortened: as §1
# Gal3S(b1-3)GalNAc = biological target: Gal3S(b1-3)GalNAc
# Procedure, shortened: as §1
# Gal3S(b1-3)GlcNAc = biological target: Gal3S(b1-3)GlcNAc
# Procedure, shortened: as §1
# [26] = biological target: Gal3S(b1-3)[Fuc(a1-4)]GlcNAc
# Procedure, shortened: as §1
# Gal3S(b1-4)Glc = biological target: Gal3S(b1-4)Glc
# Procedure, shortened: as §1
# Gal3S(b1-4)Glc6S = biological target: Gal3S(b1-4)Glc6S
# Procedure, shortened: as §1
# Gal3S(b1-4)GlcNAc = biological target: Gal3S(b1-4)GlcNAc
# Procedure, shortened: as §1
# [27] = biological target: Gal3S(b1-4)[Fuc(a1-3)]Glc6S
# Procedure, shortened: as §1
# [28] = biological target: Gal3S(b1-4)[Fuc(a1-3)]GlcNAc
# Procedure, shortened: as §1
# [29] = biological target: Gal3S(b1-4)[Fuc(a1-3)]GlcNAc6S
# Procedure, shortened: as §1
# Gal3S4S(b1-4)GlcNAc = biological target: Gal3S4S(b1-4)GlcNAc
# Procedure, shortened: as §1
# Gal3S6S(b1-4)GlcNAc = biological target: Gal3S6S(b1-4)GlcNAc
# Procedure, shortened: as §1
# Gal3S6S(b1-4)GlcNAc6S = biological target: Gal3S6S(b1-4)GlcNAc6S
# Procedure, shortened: as §1
# Gal4S(b1-4)GlcNAc = biological target: Gal4S(b1-4)GlcNAc
# Procedure, shortened: as §1
# Gal4S6S(b1-4)GlcNAc = biological target: Gal4S6S(b1-4)GlcNAc
# Procedure, shortened: as §1
# Gal6P(b1-4)GlcNAc = biological target: Gal6P(b1-4)GlcNAc
# Procedure, shortened: as §1
# Gal6S(b1-3)GlcNAc = biological target: Gal6S(b1-3)GlcNAc
# Procedure, shortened: as §1
# Gal6S(b1-3)GlcNAc6S = biological target: Gal6S(b1-3)GlcNAc6S
# Procedure, shortened: as §1
# Gal6S(b1-4)Glc = biological target: Gal6S(b1-4)Glc
# Procedure, shortened: as §1
binder,measurement,setting,value
Pwp3 (Candida glabrata) (protein) MGSSHHHHHHSSGLVPRGSHMASKNPVDFTTVCQFPDNFSKKPGFLATTARLGLWITGNSYKELLNYPGTFTLTTQQASTTTPNIQLRGTDLFTTIYGLTVYPLYLLVELQGYFVPTQSGMYTFSLTGSDDAAIIFIGNPSTFPCDAFKTWPQATANDITVTDSINPSRTLYMVKGVAYPLRIAYYNGLGNGVLNAAFTDPSGTKRTDWNGYIWQYDQCSTCTYK,glycan array binding signal (z-score),[1],1.29
same,glycan array binding signal (z-score),[2],1.87
same,glycan array binding signal (z-score),[3],-1.53
same,glycan array binding signal (z-score),[4],2.01
same,glycan array binding signal (z-score),[5],2.05
same,glycan array binding signal (z-score),[6],0.753
same,glycan array binding signal (z-score),[7],0.693
same,glycan array binding signal (z-score),[8],1.11
same,glycan array binding signal (z-score),[9],-0.237
same,glycan array binding signal (z-score),[10],3.73
same,glycan array binding signal (z-score),[11],2.41
same,glycan array binding signal (z-score),[12],-0.344
same,glycan array binding signal (z-score),[13],2.87
same,glycan array binding signal (z-score),[14],-0.392
same,glycan array binding signal (z-score),[15],0.036
same,glycan array binding signal (z-score),[16],-0.605
same,glycan array binding signal (z-score),[17],-0.328
same,glycan array binding signal (z-score),[18],-0.473
same,glycan array binding signal (z-score),[19],-0.592
same,glycan array binding signal (z-score),[20],2.15
same,glycan array binding signal (z-score),[21],-0.33
same,glycan array binding signal (z-score),[22],2.3
same,glycan array binding signal (z-score),[23],-0.482
same,glycan array binding signal (z-score),[24],1.21
same,glycan array binding signal (z-score),[25],-0.171
same,glycan array binding signal (z-score),Gal(b1-4)GlcNAc6P,0.154
same,glycan array binding signal (z-score),Gal(b1-6)Gal,-0.446
same,glycan array binding signal (z-score),Gal3S(b1-3)GalNAc,-0.275
same,glycan array binding signal (z-score),Gal3S(b1-3)GlcNAc,-0.36
same,glycan array binding signal (z-score),[26],-0.757
same,glycan array binding signal (z-score),Gal3S(b1-4)Glc,-0.492
same,glycan array binding signal (z-score),Gal3S(b1-4)Glc6S,0.111
same,glycan array binding signal (z-score),Gal3S(b1-4)GlcNAc,-0.691
same,glycan array binding signal (z-score),[27],-0.467
same,glycan array binding signal (z-score),[28],-0.122
same,glycan array binding signal (z-score),[29],-0.535
same,glycan array binding signal (z-score),Gal3S4S(b1-4)GlcNAc,1.1
same,glycan array binding signal (z-score),Gal3S6S(b1-4)GlcNAc,-0.005
same,glycan array binding signal (z-score),Gal3S6S(b1-4)GlcNAc6S,-1.1
same,glycan array binding signal (z-score),Gal4S(b1-4)GlcNAc,-0.265
same,glycan array binding signal (z-score),Gal4S6S(b1-4)GlcNAc,-0.202
same,glycan array binding signal (z-score),Gal6P(b1-4)GlcNAc,-0.377
same,glycan array binding signal (z-score),Gal6S(b1-3)GlcNAc,-0.54
same,glycan array binding signal (z-score),Gal6S(b1-3)GlcNAc6S,-0.447
same,glycan array binding signal (z-score),Gal6S(b1-4)Glc,1.23
